The shares of active, inactive and inconclusive entries below differ from those in the screen. Potencies beside an inconclusive call are fits to weak or partial responses and may not hold up. Calls of active or inactive are those of the source. The call rests on the fitted dose curve; in most records, active means well fitted activation curve with a large enough effect; inconclusive means small, poorly fitted or top-dose-only effect; inactive means no such curve, though single readings can be large or run the other way.
These compounds were tested against Relaxin receptor 1 (Homo sapiens) (UniProt Q9HBX9) (assay: qHTS Assay for Agonists of the Relaxin Receptor RXFP1: RXFP1 Hit Validation). Details: HEK293T-RXFP1 cAMP TR-FRET, 30 min; series mostly up to 115 µM.
Chain of UniProt Q9HBX9 (Q9HBX9 whole entry, looked up): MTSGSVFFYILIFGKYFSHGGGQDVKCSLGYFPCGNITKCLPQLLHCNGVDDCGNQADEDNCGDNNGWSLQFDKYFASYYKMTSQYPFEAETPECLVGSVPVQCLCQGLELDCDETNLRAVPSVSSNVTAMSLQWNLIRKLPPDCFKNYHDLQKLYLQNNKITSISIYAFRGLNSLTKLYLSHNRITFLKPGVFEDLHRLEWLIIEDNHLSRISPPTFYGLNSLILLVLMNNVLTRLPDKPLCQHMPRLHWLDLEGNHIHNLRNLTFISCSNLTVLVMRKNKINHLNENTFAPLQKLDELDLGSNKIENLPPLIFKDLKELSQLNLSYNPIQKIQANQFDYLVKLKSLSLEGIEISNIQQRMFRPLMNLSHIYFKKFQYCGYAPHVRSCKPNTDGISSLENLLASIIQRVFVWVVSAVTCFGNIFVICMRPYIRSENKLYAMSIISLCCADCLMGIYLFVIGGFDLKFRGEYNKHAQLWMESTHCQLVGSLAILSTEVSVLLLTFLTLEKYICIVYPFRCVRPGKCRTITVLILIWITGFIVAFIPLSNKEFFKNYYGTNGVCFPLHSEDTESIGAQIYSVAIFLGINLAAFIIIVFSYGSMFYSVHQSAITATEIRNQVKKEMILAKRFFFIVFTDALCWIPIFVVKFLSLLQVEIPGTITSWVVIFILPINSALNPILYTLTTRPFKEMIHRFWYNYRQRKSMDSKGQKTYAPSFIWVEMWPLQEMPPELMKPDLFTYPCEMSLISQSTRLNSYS
Further: nearly all actives have a fitted effect of over 65% in size.
Potency means the concentration at half of the fitted maximal effect; tags describe the fitted curve by direction and shape.
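Wherever activation is given: cAMP rise lowers the TR-FRET signal in lysed cells with PDE4 inhibitor present.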

Row | SMILES | Potency
1 | Cc1c(C(=O)NNc2cc(=O)n(C)c(=O)n2C)cccc1[N+](=O)[O-] | inactive
2 | CC(C)CC(OC(=O)c1nsc(Cl)c1Cl)C(=O)NCC1CCCO1 (configuration not stated) | inconclusive: 27.5 µM [activator, partial curve]
3 | O=C(Nc1ccccc1C(=O)Nc1ccccc1)c1ccco1 | inactive
4 | O=C(CCc1nnc2ccc(N3CCC4(CC3)OCCO4)nn12)NCc1ccc(F)cc1 | inconclusive: 34.6 µM [activator, partial curve]
5 | O=C1/C(=C/c2ccc(O)c(O)c2)Oc2cc(O)ccc21 | inconclusive: 48.9 µM [activator, partial curve, poor fit]
6 | Cc1ccc(CN(C)C(=O)c2ccccc2NC(=O)c2ccccc2)o1 | inactive
7 | O=[N+]([O-])c1cccc(COc2ncnc3cc([N+](=O)[O-])ccc23)c1 | inconclusive: 27.5 µM [activator, partial curve]
8 | COc1cccc(CNC(=O)c2ccc(CS(=O)Cc3ccc(C)cc3)o2)c1 (configuration not stated) | inactive
9 | COc1ccc(Cl)cc1-c1n[nH]c(=S)o1 | active: 6.15 µM
10 | CCN(CC)C(=O)CSc1nnc2c3ccccc3n(C)c2n1 | inconclusive: 38.9 µM [activator, partial curve]
11 | CN(CC(=O)Nc1ccccc1Cl)C(=O)COC(=O)Cc1c(F)cccc1Cl | inactive
12 | CC(=O)c1c(C)[nH]c(C(=O)OCc2cc(=O)n3cc(Br)ccc3n2)c1C | inconclusive: 5.48 µM [activator, full curve]
13 | CC(C)(C)C(=O)Nc1ccccc1C(=O)NCc1ccco1 | inactive
14 | COc1cccc(/C=N/NC(=O)Cn2cnc3c2c(=O)n(C)c(=O)n3C)c1OC | inconclusive: 34.6 µM [activator, partial curve]
15 | Cc1ccccc1NC(=O)CNc1ccccc1C(=O)NCc1ccco1 | inactive
16 | N#C/C(=C/c1ccc(OCc2ccccc2)cc1)C(=O)NC1CCCCC1 | inactive
17 | Cc1cc(Br)c2nc3c(c(C(=O)O)c2c1)CCCCC3 | active: 1.94 µM
18 | O=C(CSc1ccc2nnc(-c3cccnc3)n2n1)Nc1ccccc1 | inconclusive: 38.9 µM [activator, partial curve]
19 | CCOc1ccccc1OCC(=O)NNC(=O)Cn1cnc2c1c(=O)n(C)c(=O)n2C | inconclusive: 24.5 µM [activator, partial curve]
20 | O=[N+]([O-])c1cc2c(c(CSc3ncccn3)c1)OCOC2 | inconclusive: 12.3 µM [activator, partial curve]
21 | CC1CCCCN1C(=O)c1ccccc1NC(=O)c1ccco1 (configuration not stated) | inactive
22 | CC1(C)Cc2c(sc3c2c2ncnn2c2nnc(SCC(=O)NCc4ccco4)n32)CO1 | active: 6.16 µM

Source: PubChem BioAssay AID489012 (National Center for Advancing Translational Sciences (NCATS), 2010)
